# Experimental data reported in the antibiotic and cytotoxicity screens of Wong et al. (2023).
# The other results are listed elsewhere or left out.
# Assays:
# HSkMC = human skeletal muscle cells; test: cytotoxicity call (relative viability < 0.9); settings: 10 µM
# HepG2 = test: cytotoxicity call (relative viability < 0.9); settings: 10 µM
# S. aureus RN4220 = test: growth inhibition call (relative growth <= 0.2); settings: 50 µM
Compound,cytotoxicity call (HSkMC),cytotoxicity call (HepG2),growth inhibition call (S. aureus RN4220)
C[C@@H]1CN([C@H](C)CO)S(=O)(=O)c2ccc(C#CC3(O)CCCC3)cc2O[C@H]1CN(C)C(=O)Cc1ccccc1,inactive,inactive,inactive
Cc1ccccc1/C=C(\C#N)c1nc(-c2ccccc2)cs1,inactive,active,inactive
C[C@@H]1CCCCO[C@H](CN(C)C(=O)Nc2cccc3ccccc23)[C@H](C)CN([C@@H](C)CO)C(=O)c2cc(NC(=O)Nc3ccc(C(F)(F)F)cc3)ccc2O1,inactive,active,inactive
O=C(C[C@H]1C[C@H]2c3cc(NS(=O)(=O)c4ccc(F)cc4)ccc3O[C@H]2[C@H](CO)O1)NCc1ccncc1,inactive,inactive,inactive
CCNC(=O)C[C@@H]1C=C[C@H](NC(=O)C2CCOCC2)[C@H](CO)O1,inactive,inactive,inactive
Cc1noc(C)c1NC(=O)Nc1ccc2c(c1)C(=O)N([C@@H](C)CO)C[C@H](C)[C@H](CN(C)Cc1ccc(C(F)(F)F)cc1)OCCCC[C@H](C)O2,inactive,inactive,inactive
CN1CCN(C(=O)C[C@@H]2CC[C@@H]3[C@H](COC[C@@H](O)CN3S(=O)(=O)c3cccc(Cl)c3)O2)CC1,inactive,inactive,inactive
COc1ccc(S(=O)(=O)Nc2cccc3c2O[C@H](CN(C)S(=O)(=O)c2ccc(F)cc2)[C@H](C)CN([C@@H](C)CO)C3=O)cc1,inactive,inactive,inactive
C[C@H](CO)N1C[C@H](C)[C@H](CN(C)S(C)(=O)=O)Oc2ccc(NS(=O)(=O)c3ccccc3)cc2C1=O,inactive,inactive,inactive
